Data set [1] concerns the target NA (influenza neuraminidase from A/WSN/1933/H1N1) (Influenza A virus, UniProt P03470). Type of data set: biochemical, influenza virus A/WSN/1933/H1N1. The settings on record: MUNANA substrate.
Data set [2] addresses nanJ (recombinant sialidase from C. perfringens) (Clostridium perfringens, UniProt A0A0H2YT71). Put plainly: biochemical.
Data set [3] deals with nanI (recombinant sialidase from C. perfringens) (Clostridium perfringens, UniProt A0A0H2YQR1). Kind of data set: biochemical.
For data set [4], the target named is nanH (recombinant sialidase from C. perfringens) (Clostridium perfringens, UniProt P10481). Kind of data set: biochemical.
UniProt P10481, sequence (P10481 whole entry, looked up): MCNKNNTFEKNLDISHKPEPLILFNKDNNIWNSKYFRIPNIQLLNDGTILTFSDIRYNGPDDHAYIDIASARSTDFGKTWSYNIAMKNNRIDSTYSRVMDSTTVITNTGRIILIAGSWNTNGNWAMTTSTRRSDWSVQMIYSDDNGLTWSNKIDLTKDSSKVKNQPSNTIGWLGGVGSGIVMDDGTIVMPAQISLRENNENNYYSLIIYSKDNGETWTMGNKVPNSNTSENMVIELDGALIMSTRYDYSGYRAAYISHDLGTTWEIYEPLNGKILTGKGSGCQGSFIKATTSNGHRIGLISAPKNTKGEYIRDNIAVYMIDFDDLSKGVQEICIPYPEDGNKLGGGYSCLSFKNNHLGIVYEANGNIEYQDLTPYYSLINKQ
Another data set has as its target T1, Neu3 (Homo sapiens, UniProt Q9UQ49).
T1 construct: FLAG (N); expressed in transfected cells; host or cells: 293T
T1 sequence (Q9UQ49 1-428): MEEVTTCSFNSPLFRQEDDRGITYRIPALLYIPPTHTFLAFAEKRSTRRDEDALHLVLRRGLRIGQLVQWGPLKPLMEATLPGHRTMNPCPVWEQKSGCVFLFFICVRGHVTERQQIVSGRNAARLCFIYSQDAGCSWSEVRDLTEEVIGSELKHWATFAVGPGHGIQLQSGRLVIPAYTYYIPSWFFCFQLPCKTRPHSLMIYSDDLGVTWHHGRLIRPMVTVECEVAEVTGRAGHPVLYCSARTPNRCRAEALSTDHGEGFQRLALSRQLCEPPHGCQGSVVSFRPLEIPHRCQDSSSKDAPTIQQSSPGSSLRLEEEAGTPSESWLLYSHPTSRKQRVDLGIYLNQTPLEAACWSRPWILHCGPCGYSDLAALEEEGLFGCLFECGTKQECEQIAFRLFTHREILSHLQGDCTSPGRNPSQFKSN
Type of data set: binding.

For the next data set, the target named is T2, Neu1 (Homo sapiens, UniProt Q99519).
T2 construct: FLAG (N); FLAG (C); expressed in transfected cells; host or cells: 293T
The class given is binding. The settings on record: pH 9.

Data set [5] deals with T3, Neu2 (recombinant sialidase from human) (Homo sapiens, UniProt Q9Y3R4).
T3 construct: FLAG (N); expressed in transfected cells; host or cells: 293T
T3 sequence (Q9Y3R4 whole entry): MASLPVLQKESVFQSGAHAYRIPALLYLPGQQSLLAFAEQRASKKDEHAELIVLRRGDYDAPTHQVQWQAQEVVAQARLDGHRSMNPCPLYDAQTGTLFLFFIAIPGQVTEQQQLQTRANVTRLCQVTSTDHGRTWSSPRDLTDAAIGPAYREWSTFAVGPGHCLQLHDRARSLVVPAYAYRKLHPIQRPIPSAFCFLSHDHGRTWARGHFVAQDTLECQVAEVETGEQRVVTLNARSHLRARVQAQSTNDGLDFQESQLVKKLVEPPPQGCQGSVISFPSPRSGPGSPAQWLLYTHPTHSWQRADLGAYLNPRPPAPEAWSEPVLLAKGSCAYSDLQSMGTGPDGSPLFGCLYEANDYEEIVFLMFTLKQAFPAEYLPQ
Kind of data set: biochemical.

Data set [6] is described as follows: Cell permeability of the probes.
A further data set concerns bacterial sialidases. The class given is binding.
The test system of the next data set is four human sialidases. The class given is binding.
In data set [7] the test system is influenza virus (NA), bacteria (nanA, nanB, nanC, nanJ, nanI and nanH) and human (Neu1, Neu2, Neu3 and Neu4) sialidases. The class given is biochemical. The conditions noted are these: all tested sialidases.
For data set [8], the system named is Neu1 activity in fibroblasts (D551, GM02921, GM02922). Kind of data set: Live cell sialidase labeling of normal and sialidosis fibroblasts. Type of data set: cell-based, human. The conditions noted are these: more severe sialidosis (GM02921) fibroblasts versus milder sialidosis (GM02922) cells; FIG. 6A.
Data set [9] addresses Neu1 expressing 293T cells (Homo sapiens, UniProt Q99519). Kind of data set: Confocal co-localization of PDFSA sialidase labeling and flag staining. The conditions noted are these: PDFSA 0.2 mM, 15 h.
Data set [10] deals with Neu4 expressing 293T cells. The description is as above. The class given is cell-based, human. The settings on record: PDFSA 0.2 mM, 15 h.

Structures are written as SMILES. Like-named read-outs stand apart in the source and are kept apart here.

The values below come from patent publication US10214765B2, “Cell-permeable probes for identification and imaging of sialidases” (Academina Sinica, priority 2012, dated 2019).

In general, IC50 refers to the concentration at which inhibition is half-maximal.

UniProt P03470, sequence (P03470 whole entry): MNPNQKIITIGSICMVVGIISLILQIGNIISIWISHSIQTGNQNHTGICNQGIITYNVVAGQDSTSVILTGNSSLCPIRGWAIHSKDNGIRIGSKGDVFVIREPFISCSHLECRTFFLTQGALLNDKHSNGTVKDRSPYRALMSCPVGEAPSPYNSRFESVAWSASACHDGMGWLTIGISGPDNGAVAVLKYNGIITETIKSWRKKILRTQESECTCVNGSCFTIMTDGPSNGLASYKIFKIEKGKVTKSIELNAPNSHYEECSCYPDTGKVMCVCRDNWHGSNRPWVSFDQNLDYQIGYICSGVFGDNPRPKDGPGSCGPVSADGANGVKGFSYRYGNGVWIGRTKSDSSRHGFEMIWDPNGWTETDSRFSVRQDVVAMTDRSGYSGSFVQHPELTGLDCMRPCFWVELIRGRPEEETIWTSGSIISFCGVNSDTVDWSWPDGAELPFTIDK

For `CC(=O)N[C@H]1[C@H]([C@H](O)[C@H](O)CO)OC(C(=O)O)=C[C@@H]1O` [DANA, 2,3-didehydro-2-deoxy-N-acetylneuraminic acid], the IC50 in data set [1] was determined as 5.4 ± 1.6 µM; in data set [2], 4.5 µM; in data set [3] it was 1.9 µM; in [4] it was 15.7 µM.
Consider `C#CCCC(=O)NC1C(O)C(F)C(F)(C(=O)O)OC1[C@H](O)[C@H](O)CO` (stereo partly drawn) [DFSA-5-yne, 5-(Pent-4-ynamido)-2,3,5-trideoxy-3-fluoro-D-erythro-β-L-manno-non-2-ulopyranosylonic fluoride], for which the sialidase labeling result at Neu3 (pH 7) was “weak labeling”; on Neu3 (pH 9), “poorly labeled”; on Neu1, “poorly labeled”; in the data set with four human sialidases it was “specific DFSA labeling”. Also, the IC50 in data set [1] is 51 ± 24 µM; in data set [5] it was 26.1 ± 12.8 µM; in [2], 34.9 ± 4.2 µM; in [3], 25.5 ± 0.6 µM. In addition, in [6], the cell permeability result is given as “poorly permeable”. For the same compound, the fluorosialosyl-enzyme adduct formation entry with bacterial sialidases was “formed DFSA adducts”. In data set [7], the “half maximal inhibitory concentrations” value was “micro- to submicromolar”.
For the compound `CCOC(=O)C1=C[C@@H](OC(CC)CC)[C@H](NC(C)=O)[C@@H](N)C1` [Oseltamivir], the IC50 in data set [5], in data set [2], in data set [3] and in data set [4] was above 100 µM throughout.
Turning to `C#CCCC(=O)NC1C(OC(C)=O)C(F)C(F)(C(=O)OC)OC1[C@H](OC(C)=O)[C@@H](COC(C)=O)OC(C)=O` (stereo partly drawn) [PDFSA-5-yne, Methyl 5-(pent-4-ynamido)-4,7,8,9-tetra-O-acetyl-2,3,5-trideoxy-3-fluoro-D-erythro-β-L-manno-non-2-ulopyranosylonate fluoride], the sialidase labeling entry in [8] was “significantly reduced”. The “co-localization of sialidase activity and sialidase protein” value is listed as around 85% in [9] and 68% in [10]. In addition, the cell permeability result in data set [6] (not told) is “enhances cell permeable properties”. Also, the inhibition of sialidases entry in [7] (data not shown) is listed as “did not inhibit”.
As for `CC(=O)N[C@H]1[C@H]([C@H](O)[C@H](O)CO)OC(C(=O)O)=C[C@@H]1N=C(N)N` [Zanamivir], the half-maximal inhibitory concentration (IC50) in [2] was above 100 µM; in data set [3], 77 µM; in [4] it was 83 µM.
